The whole screen tested about 200,000 compounds, of which about 10 (0.005%) were called active. This list was built around the results that the source calls inconclusive (neither active nor inactive); the mix of calls is not that of the screen. The call rests on the fitted dose curve; in most records, active means well fitted inhibition curve with a large enough effect; inconclusive means small, poorly fitted or top-dose-only effect, or effect the other way, or another doubt; inactive means no such curve, though single readings can be large or run the other way. No potency is given beside an inconclusive call; the fits are too rough.
These molecules were tested against Lysosomal alpha-glucosidase (Homo sapiens) (UniProt P10253) (assay: qHTS Assay for Inhibitors of Human alpha-Glucosidase as a Potential Chaperone Treatment of Pompe Disease). Details: purified human GAA, 4-MU-alpha-glucoside fluorescence; activity change, negative = inhibition: at 76.9 µM (top of the series) unless noted.
Summary of the method: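 Read-out is 4-methylumbelliferone fluorescence (Ex 365/Em 440 nm) after NaOH/glycine stop at pH 10. Enzyme 4 nM, substrate 400 uM, pH 5.0 citrate buffer, 20 min room temperature; AC50 from Hill-equation concentration-response.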
Potency means the concentration at half of the fitted maximal effect; tags describe the fitted curve by direction and shape.
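Wherever activity change, negative = inhibition is given: plate controls were uninhibited enzyme wells for no effect and no-enzyme background for full effect.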

SMILES | Potency | activity change, negative = inhibition
O=C(CSc1nnc(-c2ccccc2)c(-c2ccccc2)n1)Nc1ncc(Cl)cc1Cl | inconclusive [inhibitor, single point] | 
COc1ccc2[nH]c(=O)c(CN(CC3CCCO3)C(=S)Nc3ccccc3)cc2c1 (configuration not stated) |  | inconclusive: 10.5% [activator]
O=c1c2c(nc3c(-c4cccc(Br)c4)c[nH]n13)CCCC2 | inconclusive [inhibitor, single point] | 
O=C(COC(=O)C12CC3CC(CC(C3)C1)C2)NCc1ccco1 | inconclusive [inhibitor, single point] | 
COc1cccc(C2NC(=S)NC(C)=C2C(=O)c2ccccc2)c1OC (configuration not stated) | inconclusive [activator, full curve, poor fit] | 
O=C(NCCOc1ccccc1Cl)c1ncn[nH]1 |  | inconclusive: 16.2% [activator]
CC(=O)Nc1ccc(NC(=O)CN2CCN(c3cccc(C(F)(F)F)c3)CC2)cc1 |  | inconclusive: -16.8% [inhibitor]
Cc1ccc(SCCN)cc1C |  | inconclusive: -15.9% [inhibitor]
COc1ccccc1-n1cnnc1SC(C)C(=O)Nc1cccc([N+](=O)[O-])c1 (configuration not stated) | inconclusive [inhibitor, partial curve, poor fit] | 
CC(OC(=O)C1=NNC(=O)CC1)C(=O)Nc1ncc(Cl)cc1Cl (configuration not stated) | inconclusive [inhibitor, partial curve, poor fit] | 
Cc1cc(C)c2nc(NNC(=O)c3ccc(S(=O)(=O)N4CCCC(C)C4)cc3)sc2c1 (configuration not stated) | inconclusive [inhibitor, single point] | 
CN1CCN(c2ccc(S(=O)(=O)N3CCCCC3)cc2NC(=O)Cc2ccccc2F)CC1 | inconclusive [inhibitor, single point] | 
COc1ccc(-c2ccc(/C=C3/C(=N)N4C=CSC4=NC3=O)o2)c([N+](=O)[O-])c1 | inconclusive [inhibitor, partial curve, poor fit] | 
COc1cc(/C=C2/C(=N)N3OC(C)=CC3=NC2=O)ccc1OC(=O)c1ccco1 | inconclusive [inhibitor, single point] | 
COC(=O)c1c(C)oc2ccc(OC(=O)c3cccs3)cc12 | inconclusive [inhibitor, partial curve, poor fit] | 
COc1ccc(Nc2nc(C)c(-c3ccccc3)s2)cc1 | inactive | 
COC(=O)c1ccc(COC(=O)c2ccc(N(C)C)cc2)cc1 | inconclusive [inhibitor, single point] | 
CN1CCN(C(=O)CN(C)S(=O)(=O)c2ccc3ccccc3c2)CC1 |  | inconclusive: 19.3% [activator]
Cc1ccc2nc(C(F)C(F)(F)F)[nH]c2c1 (configuration not stated) |  | inconclusive: 14.7% [activator]
O=C(Nc1ccc(N2CCN(C(=O)c3ccco3)CC2)cc1)c1cccnc1Cl |  | inconclusive: 19.9% [activator]
Cn1c(/C(C#N)=C/c2ccncc2)nc2ccccc21 |  | inconclusive: 13.1% [activator]

SMILES | Potency | activity change, negative = inhibition
COc1cc(-c2nnc(-c3cccs3)o2)cc(OC)c1OC | inconclusive [inhibitor, single point] | 
O=C(O)c1ccc2c(c1)ncn2C1CCCCC1 | inconclusive [inhibitor, single point] | 
Cc1ccc(Nc2ccc(S(=O)(=O)N3CCOCC3)cc2[N+](=O)[O-])cc1C |  | inconclusive: -16.2% [inhibitor]
O=C(Cn1nnc2ccccc21)N1CCCCC1 | inconclusive [inhibitor, single point] | 
COc1cccc(Nc2nc3cc(OC)ccc3cc2C#N)c1 | inconclusive [activator, single point] | 
COc1ccc(N=C2SCC(c3ccc([N+](=O)[O-])cc3)=NN2CCO)cc1 | inconclusive [inhibitor, partial curve] | 
Cc1cccc(Cl)c1NC(=O)N1CCCN(c2nc3ccc(Cl)cc3s2)CC1 | inconclusive [inhibitor, partial curve, poor fit] | 
O=C(NCc1ccco1)c1nc2nc(-c3cccs3)cc(C(F)(F)F)n2n1 | inconclusive [activator, partial curve] | 
CC1=CC=CN2C1=NC(=O)CC2(C)C(=O)N(CC(=O)NC1CCCC1)c1cc(C)cc(C)c1 (configuration not stated) | inconclusive [activator, single point] | 
COc1ccc(CCn2c(N)c(S(=O)(=O)c3cccs3)c3nc4ccccc4nc32)cc1OC | inconclusive [inhibitor, full curve] | 
COc1ccc(CC(=O)N2CCC(Nc3nc4ccccc4n3Cc3ccc(F)cc3)CC2)cc1 | inconclusive [inhibitor, partial curve, poor fit] | 
COC(=O)c1cc(OC)c(OC)cc1NC(=S)N1CCN(c2ccccc2)CC1 | inconclusive [inhibitor, single point] | 
Cc1cc(O)cc(O)c1C=NCc1ccco1 | inconclusive [inhibitor, full curve] | 
CCc1nc2cc([N+](=O)[O-])c([N+](=O)[O-])cc2[nH]1 | inconclusive [inhibitor, single point] | 
Cc1cc(C)cc(N(C(=O)c2csnn2)C(C(=O)NC(C)(C)C)c2cccnc2)c1 (configuration not stated) |  | inconclusive: 16% [activator]
NC[C@H]1O[C@H](O[C@H]2[C@H](O)[C@@H](O[C@H]3O[C@H](CO)[C@@H](O)[C@H](N)[C@H]3O)[C@H](N)C[C@@H]2N)[C@H](N)C[C@@H]1O | inconclusive [inhibitor, partial curve] | 
COc1ccc(N2CCN(CC(O)c3c[nH]c4ccc(OC)cc34)CC2C)cc1 (configuration not stated) |  | inconclusive: 15.6% [activator]
COc1ccc2cc(C(c3nnnn3C3CCCC3)N3CCc4ccccc4C3)c(=O)[nH]c2c1 (configuration not stated) | inactive | 
COc1ccc(NC(=O)N2CCN(c3cccc(C(F)(F)F)c3)CC2)cc1OC |  | inconclusive: -18.9% [inhibitor]
O=C(O)c1ccc(N=Nc2c(O)[nH]c3ccccc23)cc1 | inconclusive [inhibitor, full curve, poor fit] | 
Nc1c(C(=O)NCc2ccccc2)sc2nc(N3CCOCC3)c3c(c12)CCCC3 | inconclusive [activator, partial curve] | 

SMILES | Potency | activity change, negative = inhibition
Cc1ccc(P(=O)(CC(=O)O)c2ccc(C)cc2)cc1 | inconclusive [inhibitor, full curve] | 
CC(C)(C)OC(=O)N1CCC(c2cc(-c3cccs3)n[nH]2)CC1 |  | inconclusive: -16% [inhibitor]
Cc1cc(C)cc(NC(=S)N=Nc2c(O)n(C)c3ccc(S(=O)(=O)N4CCOCC4)cc23)c1 | inconclusive [inhibitor, full curve] | 
CCOC(=O)c1sc(N/N=C/c2cccc(C)c2)nc1C | inconclusive [inhibitor, single point] | 
CC1CCCCC1NS(=O)(=O)c1ccc(S(=O)(=O)N2CCN(CCC#N)CC2)cc1 (configuration not stated) | inconclusive [inhibitor, partial curve] | 
COc1ccc(C2N=C(Nc3ccc(C)cc3)Nc3nc(C)cc(=O)n32)cc1 (configuration not stated) |  | inconclusive: -17.8% [inhibitor]
CC(C)N1CC=C2C(C#N)=C(N)C(C#N)(C#N)C(c3ccccc3)C2C1 (configuration not stated) | inconclusive [activator, single point] | 
COc1ccc(S(=O)(=O)N2CCN(S(=O)(=O)c3ccc(C(F)(F)F)cc3)CC2)cc1C | inconclusive [inhibitor, full curve] | 
CCc1ccc(-c2cn3nc(C)c(C)nc3n2)cc1 | inconclusive [activator, single point] | 
C[N+](C)(C)c1ccc(/C=N/Nc2nc(Cl)c(C#N)c(Cl)c2Cl)cc1 | inconclusive [inhibitor, single point] | 
CCOC(=O)C1=C(c2ccccc2)N=C2SCC(=O)N2C1c1cccc(OC)c1 (configuration not stated) | inconclusive [inhibitor, single point] | 
COc1nc(Cl)cn(-c2ccc(Cl)cc2)c1=O | inconclusive [inhibitor, single point] | 
Cc1ccc(Cn2c(=O)cc(C(=O)O)c3ccccc32)cc1 | inconclusive [inhibitor, single point] | 
CCCCCOc1ccc(NC(=O)CSc2cccc3cccnc23)cc1 | inconclusive [activator, single point] | 
S=c1[nH]nc(-c2ccccn2)n1/N=C/c1ccc(Cl)cc1 | inconclusive [inhibitor, single point] | 
CC(C)(C)NC(=O)C(c1ccncc1)N(C(=O)Cn1nnc(-c2ccc(F)cc2)n1)c1ccccc1 (configuration not stated) |  | inconclusive: 22.6% [activator]
O=C(CN1CCN(S(=O)(=O)c2ccccc2)CC1)Nc1ccc(Cl)c(Cl)c1 | inconclusive [inhibitor, single point] | 
CCCc1nc(SCC(=O)N2CCCc3ccccc32)c2c(=O)n(C)c(=O)n(C)c2n1 | inconclusive [inhibitor, full curve] | 
O=C(Nc1nnc(-c2cccs2)s1)C1CC1 |  | inconclusive: 19.8% [activator]
O=C(c1cccc(S(=O)(=O)N2CCCC2)c1)N1CCCc2ccccc21 | inconclusive [inhibitor, single point] | 

Source: PubChem BioAssay AID1466 (National Center for Advancing Translational Sciences (NCATS), 2008)
